Data as given in PubChem BioAssay AID1671193 (National Center for Advancing Translational Sciences (NCATS), 2021).
Values joined by “and” are separate entries in the source; they are usually repeats but may differ in a detail not shown here. Identical values can stand only once. Among all 150,000 compounds or so, about 180 (0.12%) were called active. Inconclusive means that the source gave no clear call. Such entries were picked first, then a sample of the others. Calls follow the shape of the dose curve; as a rule, active = well fitted cell-killing curve with a large enough effect; inconclusive = small, poorly fitted or top-dose-only effect, or effect the other way; inactive = flat fitted curve, though single readings scatter. Where the call is inconclusive, the potency comes from a doubtful curve fit.

Assay: GF-AFC viability counterscreen for inhibitors of alpha-synuclein gene (SNCA) expression; also: nearly all actives have a fitted effect of over 30% in size
Conditions: HEK-293-SNCA-luc viability, GF-AFC fluorescence, 24 h; activity change, negative = cytotoxicity: at 57.1 µM (top of the series) unless noted
Excerpt: Assay Submitter (PI): Daniel R. Scoles Ph.D.
Department of Neurology, University of Utah, Salt Lake City, Utah
Accumulation of alpha-synuclein is a main underlying pathological feature of Parkinson's disease (PD) and alpha-synucleinopathies, for which lowering expression of the alpha-synuclein gene (SNCA) is a potential therapeutic avenue. Using a cell-based luciferase reporter of SNCA expression we performed a quantitative high throughput screen (qHTS) of 155,885 compounds in dose response. The screening assay was generated using genome editing to insert the luciferase gene downstream and in frame of the SNCA gene in HEK-293 cells (1). A viability counterscreen using GF-AFC was used to eliminate cytotoxic and false positive compounds. After in silico analysis (clustering, removal of frequent hitter nuisance chemotypes), inhibitor compounds from the primary screen were selected for follow up and re-tested at 11-doses in the SNCA-luc cells (luciferase and GF-AFC confirmation), and in CMV-luc expressing cell line to flag general transcriptional repressors.
Described herein are the results of the GF-AFC viability counterscreen for SNCA inhibitors; inactivity (no decrease in fluorescence signal, not cytotoxic) is the desired output for this assay.
1. Dansithong, W., Paul, S., Scoles, D. R., Pulst, S. M., and Huynh, D. P. (2015) Generation of SNCA Cell Models Using Zinc Finger Nuclease (ZFN) Technology for Efficient High-Throughput Drug Screening. PLoS ONE 10, e0136930.
SEQUENCE No. (e.g., 1, 2, 3, etc.); […] (e.g., Cells, Incubation, Reagent, etc.); VALUE; DESCRIPTION
1; Cells; 4 uL; Dispense 1500 HEK-293-SNCA-luc cells/well into Greiner 1536-well white / solid bottom tissue culture treated plate. The plate was covered with metal lids with gas-exchange holes.
2; Incubate; 24 hours; Incubate at 37C, 5% CO2, 95% RH.
3; Compounds; 23 nL; Compounds and controls were transferred via a Kalypsys Pin Tool (Wako USA) equipped with a 1536-slotted pin array. The plate was covered with metal lids with gas-exchange holes.
4; Incubate; 24 hours; Incubate at 37C, 5% CO2, 95% RH.
5; Dispense; 1 uL; Dispense Gly-Phe-7-amino-4-trifluoromethylcoumarin (GF-AFC, prepared at 125 uM in PBS) was added. The plate was covered with metal lids with gas-exchange holes.
6; Incubate; 30 min; Incubate at 37C, 5% CO2.
7; Detector; Fluorescence; Measure fluorescence with ViewLux microplate reader (PerkinElmer) equipped with 405/10 excitation and 540/25 emission filters.
8; Dispense; 3 uL; Dispense ONE-Glo ([…]) lucifase detection reagent was added to each well. Plates were covered with metal lids with gas-exchange holes.
9; Incubate; 15 min; Incubate at room temperature.
10; Detector; Luminescence; Measure luminescence with ViewLux microplate reader (PerkinElmer) equipped with clear filters.
NOTES (numbers refer to sequence above)
1; HEK-293-SNCA-luc were cultured and suspended in phenol-red free DMEM (4.5 g/L glucose, 25 mM HEPES, cat #21063 (Thermo)).
3; Compounds were added to the assay plate in an 11-point intra plate dose response, 1:3 titration in DMSO with a final concentration range of […]. Vehicle-only plates, with DMSO being pin-transferred to every well, were inserted at the beginning of screening runs to confirm expected assay performance. Activity was normalized to wells containing medium only (-100% activity, full inhibition) and SNCA-luc cells treated with DMSO vehicle control (0% activity), contained on the same plate as test samples.
10; Signals were analyzed, and dose-response curves were fit using the Hill equation. Compounds in curve classes -1.1, -1.2, -2.1, -2.2 in the SNCA-luc assay were considered active. Compounds were eliminated from further consideration if also active (curve class -1.1, -1.2, -1.3, -1.4, -2.1, -2.2, -2.3, -2.4) in the GF-AFC cytotoxicity assay.
Potency is read from the fitted curve at half-maximal effect; tags tell the direction and shape of the fitted curve.

SMILES	activity change, negative = cytotoxicity	Potency
COc1ccc(CN2CCC3(CC2)C(=O)NCN3Cc2ccc(Cl)cc2)cc1	inactive: 6.16%	
COc1cc(C2c3c(-c4cc(C)ccc4O)n[nH]c3C(=O)N2CCCO)ccc1OCCC(C)C (stereo not drawn)		inconclusive: 28.2 µM [cytotoxic, single point]
COc1ccc2c(c1)CCCC2=O	inactive: 5.42% [at 23.9 µM]	
Cc1nn2c(c1-c1ccccc1C(N)=O)N(C(=O)c1ccccc1)CCC2	inactive: 1.89% [at 87.6 µM]	
Cc1ccc2c(=O)c(C(=O)c3cccc(Cl)c3)cn(CC(=O)Nc3ccc4c(c3)OCCO4)c2n1		inconclusive: 1.26 µM [cytotoxic, full curve, poor fit]
N#Cc1cccc(-c2cn3c(n2)N(C(=O)C2CCC2)CCC3)c1	inactive: -5.92%	
CC1Oc2ccc(NC(=O)c3cccc(F)c3)cc2CN(Cc2ccc3c(c2)OCO3)C1=O (stereo not drawn)	inactive: 2.29%	
COc1ncccc1-c1cn(C)c(=O)n2cc(CNc3ccccc3)nc12	inactive: -3.62% [at 87.6 µM]	
COc1cccc(Cn2c(=O)c(-c3ccc(Cl)cc3)nc3cnc(N4CCNCC4)nc32)c1		inconclusive: 2.82 µM [rising, full curve, poor fit]
O=C(O)C1(CCc2ccccc2)CCCN(c2ncnc3nc[nH]c23)C1 (stereo not drawn)	inactive: 11.2%	
CN1CCOc2c(C(=O)NCc3cnn(C)c3)cc(-c3ccccc3)cc21	inactive: -4.23% [at 87.6 µM]	
COc1ccc(-c2cc(C(F)(F)F)n3nc(C(=O)Nc4ccccc4SC)cc3n2)cc1OC		inconclusive: 0.501 µM [rising, full curve, poor fit]
C1=CCOCc2cc(ccc2OCCN2CCCC2)Nc2nccc(n2)-c2cccc(c2)OCC1		inconclusive: 2.71 µM [cytotoxic, full curve, poor fit]
O=C(NCCc1ccccc1Cl)c1ccc2c(c1)nc1n2CCCCC1	inactive: -3.32%	
Cc1ccc(C)c(Cn2c(C3CC(=O)N(c4ccccc4C)C3)nc3ccccc32)c1 (stereo not drawn)		inconclusive: 39.8 µM [cytotoxic, single point]
O=C(N[C@H]1CO[C@H]2[C@@H]1OC[C@@H]2Nc1nccc(-c2cccc(F)c2)n1)c1cccs1	inactive: 4.23% [at 87.6 µM]	
CCCC1(CCC)CCC2(CCN(CCCN(CC)CC)C2)CC1		inconclusive: 3.77 µM [cytotoxic, full curve, poor fit]
Cc1nccn1CC(=O)N1C[C@@H](COCC2CC2)[C@H](c2ccncc2)C1		inconclusive: 8.91 µM [cytotoxic, single point]
CC(=O)Nc1ccc(C(=O)N2CCC3(CC2)N=C(c2ccccc2)NO3)cc1	inactive: -18.2%	
CCN(Cc1ccccc1)C(=O)Cn1c(=O)n(-c2ccc(C)c(C)c2)c(=O)c2c(C)c(C)sc21		inconclusive: 2.82 µM [cytotoxic, full curve]
CCCCc1nn(CC(=O)N(C)Cc2cc(C)on2)c(=O)n1CC		inconclusive: 31.6 µM [cytotoxic, partial curve, poor fit]
Cc1nnc(N2CCCC(C(=O)NCCc3ccc(Cl)cc3)C2)c2nn(-c3ccccc3)c(C)c12 (stereo not drawn)		inconclusive: 2 µM [cytotoxic, full curve, poor fit]

SMILES	activity change, negative = cytotoxicity	Potency
CNc1nc(-c2ccc3c(c2)OCO3)nc2ccccc12		inconclusive: 3.16 µM [cytotoxic, full curve, poor fit]
CC1(C)CCC2=C(O1)c1ccccc1C(=O)C2=O		inconclusive: 38.3 µM [cytotoxic, single point] and inconclusive: 39.8 µM [cytotoxic, single point]
Oc1ccc(-c2ccc(-c3nc(CCc4ccccc4)no3)cn2)cc1		inconclusive: 25.1 µM [rising, partial curve, poor fit]
CNc1nccc(N2CCC(CC(=O)NCCC(C)C)CC2)n1	inactive: -8.69%	
CC(O)c1cc2n(n1)CCN(C(=O)c1nc3ccccc3n(C)c1=O)C2 (stereo not drawn)	inactive: 0.977%	
S=C(NCc1ccc2c(c1)OCO2)N1CCN(c2ncnc3c2oc2ccccc23)CC1		inconclusive: 24.8 µM [cytotoxic, partial curve] and inconclusive: 29.9 µM [cytotoxic, partial curve, poor fit]
CCN(CC)c1nc2ccccc2nc1C(=O)Nc1cccc(C(C)=O)c1		inconclusive: 28.2 µM [cytotoxic, single point]
CCCNC(=O)CCC1CCN(c2cc(NCCC)ncn2)CC1	inactive: -1.05%	
COCCOCc1nc(C2CCCCN2C(=O)Nc2ccc(OC)c(F)c2)no1 (stereo not drawn)	inactive: -6.36%	
Cc1cccn2c(=O)c3cc(C(=O)NC(C)c4ccccc4)c(=N)n(CCCO)c3nc12 (stereo not drawn)		inconclusive: 3.55 µM [rising, full curve]
COCCC(=O)N1C[C@H]2OC(=O)N(CCc3ccc(OC)cc3)[C@H]2C1		inconclusive: 31.6 µM [cytotoxic, partial curve, poor fit]
CCn1cc(C(=O)OCC(=O)Nc2cccc(C(C)=O)c2)c(=O)c2ccc(C)nc21		inconclusive: 1.12 µM [rising, full curve, poor fit]
Cc1ccc(-c2cc(C(=O)NCC(F)F)nn3cnnc23)cc1	inactive: -5.59% [at 87.6 µM]	
COc1ccc(-c2nc3c(C#N)c[nH]n3c2NC2CCCC2)c(OC)c1		inconclusive: 7.08 µM [cytotoxic, partial curve, poor fit]
CN1CCN(C(=O)c2cc(-c3ccc(F)cc3)c3nncn3n2)CC1	inactive: -4.45%	
O=c1oc2c(CN3CCN(CCO)CC3)c(O)ccc2cc1-c1ccccc1		inconclusive: 22.4 µM [rising, partial curve]
C[C@]1(C2CCCC2)Cc2cc(OCC(=O)O)c(Cl)c(Cl)c2C1=O	inactive: 4.02%	
Fc1ccc(-c2noc3ncnc(NCCCN4CCN(c5ccccc5)CC4)c23)cc1		inconclusive: 12.6 µM [cytotoxic, partial curve, poor fit]
CN1CCC(C(=O)N2Cc3ccccc3CC3(CCCCN3CC3CCNCC3)C2)CC1 (stereo not drawn)	inactive: 0.0363%	
COc1ccc(NC(=O)N2Cc3[nH]cnc3C[C@H]2c2nc(-c3ccc(C(F)(F)F)cc3)no2)cc1	inactive: -5.45%	
CCOC(=O)C1CCN(C(=O)c2nc3sccn3c2-c2ccc(C(F)(F)F)cc2)CC1		inconclusive: 1.26 µM [cytotoxic, partial curve, poor fit]
